According to publication PMC9243173:

B1: 3HA-3FLAG-CIAO3, wildtype [human] / ABCE1 [human (endogenous in Flp-In T-REx 293)] (parent)
chain 1: MASPFSGALQLTDLDDFIGPSQECIKPVKVEKRAGSGVAKIRIEDDGSYFQINQDGGTRRLEKAKVSLNDCLACSGCITSAETVLITQQSHEELKKVLDANKMAAPSQQRLVVVSVSPQSRASLAARFQLNPTDTARKLTSFFKKIGVHFVFDTAFSRHFSLLESQREFVRRFRGQADCRQALPLLASACPGWICYAEKTHGSFILPHISTARSPQQVMGSLVKDFFAQQQHLTPDKIYHVTVMPCYDKKLEASRPDFFNQEHQTRDVDCVLTTGEVFRLLEEEGVSLPDLEPAPLDSLCSGASAEEPTSHRGGGSGGYLEHVFRHAARELFGIHVAEVTYKPLRNKDFQEVTLEKEGQVLLHFAMAYGFRNIQNLVQRLKRGRCPYHYVEVMACPSGCLNGGGQLQAPDRPSRELLQHVERLYGMVRAEAPEDAPGVQELYTHWLQGTDSECAGRLLHTQYHAVEKASTGLGIRW
chain 2: not shown
B2: 3HA-3FLAG-CIAO3, wildtype [human] / POLD1 [human (endogenous in Flp-In T-REx 293)] (parent)
chain 1: B1 chain 1
chain 2: MDGKRRPGPGPGVPPKRARGGLWDDDDAPRPSQFEEDLALMEEMEAEHRLQEQEEEELQSVLEGVADGQVPPSAIDPRWLRPTPPALDPQTEPLIFQQLEIDHYVGPAQPVPGGPPPSRGSVPVLRAFGVTDEGFSVCCHIHGFAPYFYTPAPPGFGPEHMGDLQRELNLAISRDSRGGRELTGPAVLAVELCSRESMFGYHGHGPSPFLRITVALPRLVAPARRLLEQGIRVAGLGTPSFAPYEANVDFEIRFMVDTDIVGCNWLELPAGKYALRLKEKATQCQLEADVLWSDVVSHPPEGPWQRIAPLRVLSFDIECAGRKGIFPEPERDPVIQICSLGLRWGEPEPFLRLALTLRPCAPILGAKVQSYEKEEDLLQAWSTFIRIMDPDVITGYNIQNFDLPYLISRAQTLKVQTFPFLGRVAGLCSNIRDSSFQSKQTGRRDTKVVSMVGRVQMDMLQVLLREYKLRSYTLNAVSFHFLGEQKEDVQHSIITDLQNGNDQTRRRLAVYCLKDAYLPLRLLERLMVLVNAVEMARVTGVPLSYLLSRGQQVKVVSQLLRQAMHEGLLMPVVKSEGGEDYTGATVIEPLKGYYDVPIATLDFSSLYPSIMMAHNLCYTTLLRPGTAQKLGLTEDQFIRTPTGDEFVKTSVRKGLLPQILENLLSARKRAKAELAKETDPLRRQVLDGRQLALKVSANSVYGFTGAQVGKLPCLEISQSVTGFGRQMIEKTKQLVESKYTVENGYSTSAKVVYGDTDSVMCRFGVSSVAEAMALGREAADWVSGHFPSPIRLEFEKVYFPYLLISKKRYAGLLFSSRPDAHDRMDCKGLEAVRRDNCPLVANLVTASLRRLLIDRDPEGAVAHAQDVISDLLCNRIDISQLVITKELTRAASDYAGKQAHVELAERMRKRDPGSAPSLGDRVPYVIISAAKGVAAYMKSEDPLFVLEHSLPIDTQYYLEQQLAKPLLRIFEPILGEGRAEAVLLRGDHTRCKTVLTGKVGGLLAFAKRRNCCIGCRTVLSHQGAVCEFCQPRESELYQKEVSHLNALEERFSRLWTQCQRCQGSLHEDVICTSRDCPIFYMRKKVRKDLEDQEQLLRRFGPPGPEAW
B3: 3HA-3FLAG-CIAO3, wildtype [human] / CDKAL1 [human (endogenous in Flp-In T-REx 293)] (parent)
chain 1: B1 chain 1
chain 2: MPSASCDTLLDDIEDIVSQEDSKPQDRHFVRKDVVPKVRRRNTQKYLQEEENSPPSDSTIPGIQKIWIRTWGCSHNNSDGEYMAGQLAAYGYKITENASDADLWLLNSCTVKNPAEDHFRNSIKKAQEENKKIVLAGCVPQAQPRQDYLKGLSIIGVQQIDRVVEVVEETIKGHSVRLLGQKKDNGRRLGGARLDLPKIRKNPLIEIISINTGCLNACTYCKTKHARGNLASYPIDELVDRAKQSFQEGVCEIWLTSEDTGAYGRDIGTNLPTLLWKLVEVIPEGAMLRLGMTNPPYILEHLEEMAKILNHPRVYAFLHIPVQSASDSVLMEMKREYCVADFKRVVDFLKEKVPGITIATDIICGFPGETDQDFQETVKLVEEYKFPSLFINQFYPRPGTPAAKMEQVPAQVKKQRTKDLSRVFHSYSPYDHKIGERQQVLVTEESFDSKFYVAHNQFYEQVLVPKNPAFMGKMVEVDIYESGKHFMKGQPVSDAKVYTPSISKPLAKGEVSGLTKDFRNGLGNQLSSGSHTSAASQCDSASSRMVLPMPRLHQDCALRMSVGLALLGLLFAFFVKVYN
B4: 3HA-3FLAG-CIAO3, wildtype [human] / probable cytosolic iron-sulfur protein assembly protein CIAO1 [human (endogenous in Flp-In T-REx 293)] (parent)
chain 1: B1 chain 1
chain 2: MKDSLVLLGRVPAHPDSRCWFLAWNPAGTLLASCGGDRRIRIWGTEGDSWICKSVLSEGHQRTVRKVAWSPCGNYLASASFDATTCIWKKNQDDFECVTTLEGHENEVKSVAWAPSGNLLATCSRDKSVWVWEVDEEDEYECVSVLNSHTQDVKHVVWHPSQELLASASYDDTVKLYREEEDDWVCCATLEGHESTVWSLAFDPSGQRLASCSDDRTVRIWRQYLPGNEQGVACSGSDPSWKCICTLSGFHSRTIYDIAWCQLTGALATACGDDAIRVFQEDPNSDPQQPTFSLTAHLHQAHSQDVNCVAWNPKEPGLLASCSDDGEVAFWKYQRPEGL
B5: 3HA-3FLAG-CIAO3, wildtype [human] / cytosolic iron-sulfur assembly component 2B (CIAO2B) [human (endogenous in Flp-In T-REx 293)] (parent)
chain 1: B1 chain 1
chain 2: MVGGGGVGGGLLENANPLIYQRSGERPVTAGEEDEQVPDSIDAREIFDLIRSINDPEHPLTLEELNVVEQVRVQVSDPESTVAVAFTPTIPHCSMATLIGLSIKVKLLRSLPQRFKMDVHITPGTHASEHAVNKQLADKERVAAALENTHLLEVVNQCLSARS
B6: 3HA-3FLAG-CIAO3, wildtype [human] / MMS19 nucleotide excision repair protein homolog (MMS19) [human (endogenous in Flp-In T-REx 293)] (parent)
chain 1: B1 chain 1
chain 2: MAAAAAVEAAAPMGALWGLVHDFVVGQQEGPADQVAADVKSGNYTVLQVVEALGSSLENPEPRTRARAIQLLSQVLLHCHTLLLEKEVVHLILFYENRLKDHHLVIPSVLQGLKALSLCVALPPGLAVSVLKAIFQEVHVQSLPQVDRHTVYNIITNFMRTREEELKSLGADFTFGFIQVMDGEKDPRNLLVAFRIVHDLISRDYSLGPFVEELFEVTSCYFPIDFTPPPNDPHGIQREDLILSLRAVLASTPRFAEFLLPLLIEKVDSEVLSAKLDSLQTLNACCAVYGQKELKDFLPSLWASIRREVFQTASERVEAEGLAALHSLTACLSRSVLRADAEDLLDSFLSNILQDCRHHLCEPDMKLVWPSAKLLQAAAGASARACDSVTSNVLPLLLEQFHKHSQSSQRRTILEMLLGFLKLQQKWSYEDKDQRPLNGFKDQLCSLVFMALTDPSTQLQLVGIRTLTVLGAQPDLLSYEDLELAVGHLYRLSFLKEDSQSCRVAALEASGTLAALYPVAFSSHLVPKLAEELRVGESNLTNGDEPTQCSRHLCCLQALSAVSTHPSIVKETLPLLLQHLWQVNRGNMVAQSSDVIAVCQSLRQMAEKCQQDPESCWYFHQTAIPCLLALAVQASMPEKEPSVLRKVLLEDEVLAAMVSVIGTATTHLSPELAAQSVTHIVPLFLDGNVSFLPENSFPSRFQPFQDGSSGQRRLIALLMAFVCSLPRNVEIPQLNQLMRELLELSCCHSCPFSSTAAAKCFAGLLNKHPAGQQLDEFLQLAVDKVEAGLGSGPCRSQAFTLLLWVTKALVLRYHPLSSCLTARLMGLLSDPELGPAAADGFSLLMSDCTDVLTRAGHAEVRIMFRQRFFTDNVPALVQGFHAAPQDVKPNYLKGLSHVLNRLPKPVLLPELPTLLSLLLEALSCPDCVVQLSTLSCLQPLLLEAPQVMSLHVDTLVTKFLNLSSSPSMAVRIAALQCMHALTRLPTPVLLPYKPQVIRALAKPLDDKKRLVRKEAVSARGEWFLLGSPGS

Variants of: B1
Assay: affinity purification with PRM-based targeted proteomics
Settings: with ABCE1 [human (endogenous in Flp-In T-REx 293)]; 1 μg/ml doxycycline for 24 h; normalized to CIAO3 levels; two biological replicates; read off a plot

Row | response (Log2Intensities) | Variant
1 | 20 | chain 1 C71S C190S C395S
2 | 16 | chain 1 C71S
3 | 19 | chain 1 C190S C395S

Variants of: B2
Assay: as above
Settings: with POLD1 [human (endogenous in Flp-In T-REx 293)]; 1 μg/ml doxycycline for 24 h; normalized to CIAO3 levels; two biological replicates; read off a plot

Row | response (Log2Intensities) | Variant
4 | 14 | chain 1 C71S
5 | 18 | chain 1 C190S C395S
6 | 18 | chain 1 C71S C190S C395S

Variants of: B3
Assay: as above
Settings: with CDKAL1 [human (endogenous in Flp-In T-REx 293)]; 1 μg/ml doxycycline for 24 h; normalized to CIAO3 levels; two biological replicates; read off a plot

Row | response (Log2Intensities) | Variant
7 | 18 | chain 1 C190S C395S
8 | 19 | chain 1 C71S C190S C395S
9 | 15 | chain 1 C71S

Variants of: B4
Assay: as above
Settings: with probable cytosolic iron-sulfur protein assembly protein CIAO1 [human (endogenous in Flp-In T-REx 293)]; 1 μg/ml doxycycline for 24 h; normalized to CIAO3 levels; two biological replicates; read off a plot

Row | response (Log2Intensities) | Variant
10 | 20 | chain 1 C190S C395S

Variants of: B5
Assay: as above
Settings: with cytosolic iron-sulfur assembly component 2B (CIAO2B) [human (endogenous in Flp-In T-REx 293)]; 1 μg/ml doxycycline for 24 h; normalized to CIAO3 levels; two biological replicates; read off a plot

Row | response (Log2Intensities) | Variant
11 | 20 | chain 1 C190S C395S

Variants of: B6
Assay: as above
Settings: with MMS19 nucleotide excision repair protein homolog (MMS19) [human (endogenous in Flp-In T-REx 293)]; 1 μg/ml doxycycline for 24 h; normalized to CIAO3 levels; two biological replicates; read off a plot

Row | response (Log2Intensities) | Variant
12 | 20 | chain 1 C190S C395S
